Experimental data: patent US20200270321A1 (Hoffmann-La Roche, published 2020)
One block for each binder: values may come before it.

Columns and labels:
[1] = target: T1, human 4-1BB (CD137) on cells (human, UniProt Q07011 24-255); assay: flow cytometry on activated human T cells, gate CD4+; PE anti-human IgG Fc-gamma F(ab')2; MFI baseline corrected
T1 construct: whole, on cells; also called 4-1BB+ human T cells

[2] = target: T1, human 4-1BB (CD137) on cells; assay: flow cytometry on activated human T cells, gate CD8+; PE anti-human IgG Fc-gamma F(ab')2; MFI baseline corrected
[3] = target: T2, human fibroblast activation protein (huFAP) on cells (human, UniProt Q12884 1-760); assay: flow cytometry on WM-266-4 cells; PE anti-human IgG Fc-gamma F(ab')2; MFI
T2 construct: Transfected in NIH/3T3-huFAP clone 39; also called NIH/3T3-huFAP clone 39; WM266-4

[4] = target: T1, human 4-1BB (CD137) on cells; assay: flow cytometry on activated human T cells, gate CD8+; PE anti-human IgG Fc-gamma F(ab')2; MFI baseline corrected; remark: listed apart in the source
[5] = target: T2, human fibroblast activation protein …; assay: flow cytometry on MV-3 cells; PE anti-human IgG Fc-gamma F(ab')2; MFI

EC50 (read off the curve) [1]: ~1 nM | EC50 (read off the curve) [2]: ~0.3 nM
B1: Bivalent CEA(sm9b)-targeted single chain 4-1BB ligand trimer-containing Fc (kih) fusion antigen binding molecule (Compound S4) (Fc fusion)
heavy 1: QVKLEQSGAEVVKPGASVKLSCKASGFNIKDSYMHWLRQGPGQCLEWIGWIDPENGDTEYAPKFQGKATFTTDTSANTAYLGLSSLRPEDTAVYYCNEGTPTGPYYFDYWGQGTLVTVSSASTKGPSVFPLAPSSKSTSGGTAALGCLVKDYFPEPVTVSWNSGALTSGVHTFPAVLQSSGLYSLSSVVTVPSSSLGTQTYICNVNHKPSNTKVDKKVEPKSCDKTHTCPPCPAPEAAGGPSVFLFPPKPKDTLMISRTPEVTCVVVDVSHEDPEVKFNWYVDGVEVHNAKTKPREEQYNSTYRVVSVLTVLHQDWLNGKEYKCKVSNKALGAPIEKTISKAKGQPREPQVCTLPPSRDELTKNQVSLSCAVKGFYPSDIAVEWESNGQPENNYKTTPPVLDSDGSFFLVSKLTVDKSRWQQGNVFSCSVMHEALHNHYTQKSLSLSPGK
heavy 2: QVKLEQSGAEVVKPGASVKLSCKASGFNIKDSYMHWLRQGPGQCLEWIGWIDPENGDTEYAPKFQGKATFTTDTSANTAYLGLSSLRPEDTAVYYCNEGTPTGPYYFDYWGQGTLVTVSSASTKGPSVFPLAPSSKSTSGGTAALGCLVKDYFPEPVTVSWNSGALTSGVHTFPAVLQSSGLYSLSSVVTVPSSSLGTQTYICNVNHKPSNTKVDKKV[left out - human IgG1 Fc with changes]GGGGSGGGGSREGPELSPDDPAGLLDLRQGMFAQLVAQNVLLIDGPLSWYSDPGLAGVSLTGGLSYKEDTKELVVAKAGVYYVFFQLELRRVVAGEGSGSVSLALHLQPLRSAAGAAALALTVDLPPASSEARNSAFGFQGRLLHLSAGQRLGVHLHTEARARHAWQLTQGATVLGLFRVTPEIPAGLPSPRSEGGGGSGGGGSREGPELSPDDPAGLLDLRQGMFAQLVAQNVLLIDGPLSWYSDPGLAGVSLTGGLSYKEDTKELVVAKAGVYYVFFQLELRRVVAGEGSGSVSLALHLQPLRSAAGAAALALTVDLPPASSEARNSAFGFQGRLLHLSAGQRLGVHLHTEARARHAWQLTQGATVLGLFRVTPEIPAGLPSPRSEGGGGSGGGGSREGPELSPDDPAGLLDLRQGMFAQLVAQNVLLIDGPLSWYSDPGLAGVSLTGGLSYKEDTKELVVAKAGVYYVFFQLELRRVVAGEGSGSVSLALHLQPLRSAAGAAALALTVDLPPASSEARNSAFGFQGRLLHLSAGQRLGVHLHTEARARHAWQLTQGATVLGLFRVTPEIPAGLPSPRSE
light: ENVLTQSPSSMSVSVGDRVTIACSASSSVPYMHWLQQKPGKSPKLLIYSTSNLASGVPSRFSGSGSGTDYSLTISSVQPEDAATYYCQQRSSYPLTFGCGTKLEIKRTVAAPSVFIFPPSDEQLKSGTASVVCLLNNFYPREAKVQWKVDNALQSGNSQESVTEQDSKDSTYSLSSTLTLSKADYEKHKVYACEVTHQGLSSPVTKSFNRGEC
notes: IgG1 P329G LALA kih

EC50 (read off the curve) [3]: ~0.7 nM | EC50 (read off the curve) [4]: ~0.1 nM | EC50 (read off the curve) [5]: ~1 nM
B2: Monovalent FAP(4B9)-targeted single chain 4-1BB ligand trimer-containing Fc (kih) fusion antigen binding molecule (Compound S3) (Fc fusion)
chain: [left out - about 200 residues]GGGGSGGGGSREGPELSPDDPAGLLDLRQGMFAQLVAQNVLLIDGPLSWYSDPGLAGVSLTGGLSYKEDTKELVVAKAGVYYVFFQLELRRVVAGEGSGSVSLALHLQPLRSAAGAAALALTVDLPPASSEARNSAFGFQGRLLHLSAGQRLGVHLHTEARARHAWQLTQGATVLGLFRVTPEIPAGLPSPRSEGGGGSGGGGSREGPELSPDDPAGLLDLRQGMFAQLVAQNVLLIDGPLSWYSDPGLAGVSLTGGLSYKEDTKELVVAKAGVYYVFFQLELRRVVAGEGSGSVSLALHLQPLRSAAGAAALALTVDLPPASSEARNSAFGFQGRLLHLSAGQRLGVHLHTEARARHAWQLTQGATVLGLFRVTPEIPAGLPSPRSEGSPGSSSSGS[left out - human IgG1 Fc with changes]
heavy: EVQLLESGGGLVQPGGSLRLSCAASGFTFSSYAMSWVRQAPGKGLEWVSAIIGSGASTYYADSVKGRFTISRDNSKNTLYLQMNSLRAEDTAVYYCAKGWFGGFNYWGQGTLVTVSSASTKGPSVFPLAPSSKSTSGGTAALGCLVKDYFPEPVTVSWNSGALTSGVHTFPAVLQSSGLYSLSSVVTVPSSSLGTQTYICNVNHKPSNTKVDKKVEPKSCDKTHTCPPCPAPEAAGGPSVFLFPPKPKDTLMISRTPEVTCVVVDVSHEDPEVKFNWYVDGVEVHNAKTKPREEQYNSTYRVVSVLTVLHQDWLNGKEYKCKVSNKALGAPIEKTISKAKGQPREPQVCTLPPSRDELTKNQVSLSCAVKGFYPSDIAVEWESNGQPENNYKTTPPVLDSDGSFFLVSKLTVDKSRWQQGNVFSCSVMHEALHNHYTQKSLSLSPGK
light: EIVLTQSPGTLSLSPGERATLSCRASQSVTSSYLAWYQQKPGQAPRLLINVGSRRATGIPDRFSGSGSGTDFTLTISRLEPEDFAVYYCQQGIMLPPTFGQGTKVEIKRTVAAPSVFIFPPSDEQLKSGTASVVCLLNNFYPREAKVQWKVDNALQSGNSQESVTEQDSKDSTYSLSSTLTLSKADYEKHKVYACEVTHQGLSSPVTKSFNRGEC

EC50 (read off the curve) [3]: ~0.7 nM | EC50 (read off the curve) [1]: ~0.3 nM | EC50 (read off the curve) [2]: ~0.07 nM | EC50 (read off the curve) [5]: ~0.9 nM
B3: Bivalent FAP(4B9)-targeted single chain 4-1BB ligand trimer-containing Fc (kih) fusion antigen binding molecule (Compound S2) (Fc fusion)
heavy 1: B2 heavy
heavy 2: EVQLLESGGGLVQPGGSLRLSCAASGFTFSSYAMSWVRQAPGKGLEWVSAIIGSGASTYYADSVKGRFTISRDNSKNTLYLQMNSLRAEDTAVYYCAKGWFGGFNYWGQGTLVTVSSASTKGPSVFPLAPSSKSTSGGTAALGCLVKDYFPEPVTVSWNSGALTSGVHTFPAVLQSSGLYSLSSVVTVPSSSLGTQTYICNVNHKPSNTKVDKKV[left out - human IgG1 Fc with changes]GGGGSGGGGSREGPELSPDDPAGLLDLRQGMFAQLVAQNVLLIDGPLSWYSDPGLAGVSLTGGLSYKEDTKELVVAKAGVYYVFFQLELRRVVAGEGSGSVSLALHLQPLRSAAGAAALALTVDLPPASSEARNSAFGFQGRLLHLSAGQRLGVHLHTEARARHAWQLTQGATVLGLFRVTPEIPAGLPSPRSEGGGGSGGGGSREGPELSPDDPAGLLDLRQGMFAQLVAQNVLLIDGPLSWYSDPGLAGVSLTGGLSYKEDTKELVVAKAGVYYVFFQLELRRVVAGEGSGSVSLALHLQPLRSAAGAAALALTVDLPPASSEARNSAFGFQGRLLHLSAGQRLGVHLHTEARARHAWQLTQGATVLGLFRVTPEIPAGLPSPRSEGGGGSGGGGSREGPELSPDDPAGLLDLRQGMFAQLVAQNVLLIDGPLSWYSDPGLAGVSLTGGLSYKEDTKELVVAKAGVYYVFFQLELRRVVAGEGSGSVSLALHLQPLRSAAGAAALALTVDLPPASSEARNSAFGFQGRLLHLSAGQRLGVHLHTEARARHAWQLTQGATVLGLFRVTPEIPAGLPSPRSE
light: B2 light
notes: IgG1 P329G LALA kih

EC50 (read off the curve) [1]: ~0.7 nM | EC50 (read off the curve) [2]: ~0.09 nM | binding result [5]: no binding (tested: about 30 nM)
B4: Bivalent DP47-containing single chain 4-1BB ligand trimer-containing Fc (kih) fusion antigen binding molecule (Control 2) (Fc fusion)
heavy 1: [left out - about 100 residues]GSGFDYWGQGTLVTVSSASTKGPSVFPLAPSSKSTSGGTAALGCLVKDYFPEPVTVSWNSGALTSGVHTFPAVLQSSGLYSLSSVVTVPSSSLGTQTYICNVNHKPSNTKVDKKVEPKSCDKTHTCPPCPAPEAAGGPSVFLFPPKPKDTLMISRTPEVTCVVVDVSHEDPEVKFNWYVDGVEVHNAKTKPREEQYNSTYRVVSVLTVLHQDWLNGKEYKCKVSNKALGAPIEKTISKAKGQPREPQVCTLPPSRDELTKNQVSLSCAVKGFYPSDIAVEWESNGQPENNYKTTPPVLDSDGSFFLVSKLTVDKSRWQQGNVFSCSVMHEALHNHYTQKSLSLSPGK
heavy 2: [left out - about 100 residues][left out - about 120 residues][left out - human IgG1 Fc with changes]GGGGSGGGGSREGPELSPDDPAGLLDLRQGMFAQLVAQNVLLIDGPLSWYSDPGLAGVSLTGGLSYKEDTKELVVAKAGVYYVFFQLELRRVVAGEGSGSVSLALHLQPLRSAAGAAALALTVDLPPASSEARNSAFGFQGRLLHLSAGQRLGVHLHTEARARHAWQLTQGATVLGLFRVTPEIPAGLPSPRSEGGGGSGGGGSREGPELSPDDPAGLLDLRQGMFAQLVAQNVLLIDGPLSWYSDPGLAGVSLTGGLSYKEDTKELVVAKAGVYYVFFQLELRRVVAGEGSGSVSLALHLQPLRSAAGAAALALTVDLPPASSEARNSAFGFQGRLLHLSAGQRLGVHLHTEARARHAWQLTQGATVLGLFRVTPEIPAGLPSPRSEGGGGSGGGGSREGPELSPDDPAGLLDLRQGMFAQLVAQNVLLIDGPLSWYSDPGLAGVSLTGGLSYKEDTKELVVAKAGVYYVFFQLELRRVVAGEGSGSVSLALHLQPLRSAAGAAALALTVDLPPASSEARNSAFGFQGRLLHLSAGQRLGVHLHTEARARHAWQLTQGATVLGLFRVTPEIPAGLPSPRSE
light: [left out - about 100 residues][left out - about 100 residues]
notes: Untargeted bivalent control; also called bivalent untargeted trimeric 4-1BB single chain ligand Fc fusion
